Reference: the RNAGym collection of RNA variant scans (doi:10.7554/elife.90254)
The source gives no read counts; variants with many changes may rest on few reads.

B1: LINE1-full (parent)
chain: UACGUAGGUGGUUUUCCCCUGAUAGUGCUAAGGGGGCCUGGAAGUUUGGACUGGGCAGAGCUCAACACAGCGUGGCAAAGUGGCUGUGGCUAGACUGCCUCUCUGGAUUCCUCGUCACUCAGCAGGGCAUCUCUGAGAGAAAUGCC

Variants of: B1
Experiment: self-cleavage, relative activity (ratio to wild type); higher = more cleavage; in vitro, sequencing; the parent is a self-cleaving ribozyme

Variant | self-cleavage
U13C U87A U134C | 0.06
U13C U85C U108C U112C A138G | 0
U14C A43G U100C | 1.53
U14C U39A U87C | 0.41
U14C A22G A129G | 0.56
U14C A24G G93A U104A A117G | 0
U14C C84G A92G | 0.04
U14A A79G U87A A138G | 0.06
U14C A78G U112A | 0.64
U14C A42G C123U | 0.89
U14C A69U A136U | 0.03
U14C A24G U87C | 0.51
U14C U15A G58A U87A A94G A117C | 0.45
U14C A78G U102C G122A | 1.25
U14C U39C A64G U85A U134A | 0.6
U14A A43C U46C A65G | 0.17
U14C C37U U45C U112C | 1.31
U14A A43G U119C | 1.12
U13C U73C A121G | 0.57
U14C A124G A129U U130C | 1.58
U14C A78G A94G | 0

Variant | self-cleavage
U14C U15A A43G U96A | 0
U14C A42G A67U A94G | 0.08
U14C G32A U46A A136U | 1.33
U14C U23C A50G A77G G122A A136U | 2.01
U13G G27A G54A U81C | 0.48
U14A A57U U62C | 0.09
U14C U39A U87A U96A | 0
U14C A79G A138G | 1.07
U14C A59G G82A | 0.08
U14C A22G U47A U143A | 1.02
U13C U87A U91C A129G | 0.33
U14C A31U G48A U115C A117U A121U A138U | 1.95
U14C U45A U81C | 0
U13C U115A A129G U130C A138G | 0
U14C U20C A69G A77G | 0.61
U14A U20C A136G | 0.99
U14A U45A A124G | 0.4
U14A U52C U73A | 0.96
U14A G58A A59G U87C A117G | 0
U13C U102C U143A | 1.06
U14A U112C U132C | 1.13

Variant | self-cleavage
U14C A30G U96A | 0.28
U14A U85C G97C | 0.03
U14C A57G C76U U100A U112C A136U | 0.35
U14C U39G A78G | 1.23
U14C U20C C71U U96C | 0
U13C U85A U115C A129G U132C | 0.6
U14C U39C A124G A141G | 1.7
U14C A78G A79G | 2.51
U13G U102C G122A G125A | 1.17
U14A G36C U130A | 0.82
U14A A77U A79U U112C G125U A141G | 2.11
U14A U20A A94U | 0.25
U14C A124G A136G | 1.84
U13C U81A A107G U130C | 2.21
U14A A124G A136G | 1.38
U14C A59G A69G | 0
U14C U20C A43U | 1.31
U14C A64U A124G | 0.26
U14C U45C A94U U108C C118U U119C | 0.75
U14A U26C U134G | 0.79
U13C U87A U96C A142G | 0

Variant | self-cleavage
U14C A67G U109A | 0.84
U14C C19U A69G G105A U112C A117G | 0
U13C U85C U134G | 0.2
U14C U20C A142G | 1.74
U14C A57U U73A A129G | 0
U14C A64G A78G | 0.43
U14A A30G U102A | 1.27
U14A G35A U39C A92G A107G | 0
U14C A42G A65G | 0.22
U14C A50G A67G A94U | 0.48
U14A A59G U91A | 0.1
U13G A24G U62C A140U | 0.53
U14A U26A A31U U91C | 0.32
U14C U39C U81A U102C | 1.53
U14C C63U U96A U115C | 0.03
U13C U119A A138G | 0.35
U14C U39C A77G A129U | 1.44
U13C U115C U132C | 1.84
U14C A67U A142G | 0.08
U14C A42G A57U A69U A124U | 0.1
